Read counts are not given, so values of variants with three or more changes are uncertain.
B1: LINE1-mini (parent)
chain: GGCAGAGCUCAACACAGCGUGGCAAAGUGGCUGUGGCUAGACUGCC

Variants of: B1
Assay: self-cleavage, relative activity (ratio to wild type); higher = more cleavage; in vitro, sequencing; the parent is a self-cleaving ribozyme

Which self-cleavage does the source give for GGCACAGCUAAACACAGCGUGGCAAAGUGUCCGUGGCUAGACUGCC [G5C C10A G30U U32C] here?
The self-cleavage was 0.04.

For GGCACAGCUCAAAACAGCGUGGCAAAGUGGCUGUGGCUCGACUGCC [G5C C13A A39C], which self-cleavage is on record?
The self-cleavage was 0.03.

For GGCACAGCUGAACACAGCGUGGCAAAGUCGCAUUGGCUAGACUGCC [G5C C10G G29C U32A G33U], which self-cleavage is on record?
Its self-cleavage is 0.02.

With GGCACAGCUCAACACAGGGUGUCAAGGUGGCCGUGGCUAGACUGCC [G5C C18G G22U A26G U32C] as the variant, how does the self-cleavage read?
The self-cleavage was 0.01.

Which self-cleavage does the source give for GGCACAGCUCAAAACAGCGUGGCAAAGUGGGUGUGGCUAGACCACC [G5C C13A C31G U43C G44A] here?
The self-cleavage was 0.01.

With GGCACAGCUCAACAAAGCGUGGCAAAGUCGCUGUGGCUAGAUUGCC [G5C C15A G29C C42U] as the variant, how does the self-cleavage read?
Its self-cleavage is 0.03.

With GGCACAGCUCAACACAGCGUGGUAAAGUGGCUGUGGCUAGAACGCC [G5C C23U C42A U43C] as the variant, how does the self-cleavage read?
Its self-cleavage is 0.02.

For GGCACAGUUCAACACAGCGUGGCGAAGUGGCUGUGCCUAGACUGCC [G5C C8U A24G G36C], which self-cleavage is on record?
Its self-cleavage is 0.05.

Which self-cleavage does the source give for GGCACAGCUCAACACAGCGUGGAAAAGUGCCUGUGGCUAGACUGCC [G5C C23A G30C] here?
The self-cleavage was 0.06.

Which self-cleavage does the source give for GGCACAGCUCAACAUAGCGUGGCAAAGUGGCUGUGGGUAGACUGCC [G5C C15U C37G] here?
The self-cleavage was 0.04.

With GGCACAGCUCAACACAGCGUGGAAAAGUGGCUGUGUCUAGACUGCC [G5C C23A G36U] as the variant, how does the self-cleavage read?
The self-cleavage was 0.04.

Which self-cleavage does the source give for GGCACAGCUAAACACAGGGUGGCAAAGUGGCUGUGGCUAGACUGCC [G5C C10A C18G] here?
The self-cleavage was 0.03.

For GGCACAGCUCAACACAGCGUGGUAAAAUGGCUGUGGUUAGACUGCC [G5C C23U G27A C37U], which self-cleavage is on record?
Its self-cleavage is 0.01.

With GGCACAGUACAACACAGCGUGGCAAAGUGGCUGUGUCUAGACUGCC [G5C C8U U9A G36U] as the variant, how does the self-cleavage read?
Its self-cleavage is 0.05.

With GGCACAGCUCAAAACAGCGUGGCAAAGUGGCUCUGGCUAGACUGCC [G5C C13A G33C] as the variant, how does the self-cleavage read?
The self-cleavage was 0.05.

For GGCACAGCUCAACACAGUGUGGCAAGGUGGCUGUGGCUAGACUGCC [G5C C18U A26G], which self-cleavage is on record?
Its self-cleavage is 0.03.

With GGCACAGCUCAACAAAGCGUGGCAAAGUGGCUGGGCCUAGACUGCC [G5C C15A U34G G36C] as the variant, how does the self-cleavage read?
Its self-cleavage is 0.02.

Which self-cleavage does the source give for GGCACAGCUAAACACAGCGUGGCAAAGUGGUUGUGGCUAGACUGCC [G5C C10A C31U] here?
The self-cleavage was 0.01.

For GGCACAGCUCAAGACAGCGUGGCAAAGUGGCUAUGGCUAGACUGCC [G5C C13G G33A], which self-cleavage is on record?
Its self-cleavage is 0.34.

With GGCACAGCUCAACACAGCGUGGCAAAGUGGCUGUGGCUAGAAAGCC [G5C C42A U43A] as the variant, how does the self-cleavage read?
The self-cleavage was 0.03.

Which self-cleavage does the source give for GGCACAGCUCAACACAGCGUGGGAAAGUGACUGUGGCUGGACUGCC [G5C C23G G30A A39G] here?
The self-cleavage was 0.02.

For GGCACAGCUCAAAACUGGGUUGCAAAGUGGCUAUGGCUAGACUGCC [G5C C13A A16U C18G G21U G33A], which self-cleavage is on record?
The self-cleavage was 0.01.

For GGCACAGCUUAACACAGCGGGCCAAAGCGGCUGUGGCUAGAAUGCC [G5C C10U U20G G22C U28C C42A], which self-cleavage is on record?
Its self-cleavage is 0.01.

Which self-cleavage does the source give for GGCACAGCUAAACACAGCGUGUAAAAGUGGCUGUGGCUAGACUGCC [G5C C10A G22U C23A] here?
The self-cleavage was 0.01.

Which self-cleavage does the source give for GGCACAGCUCAACACAGCGUGGCAAAGUGGCUGUGGCUAGAGUGCG [G5C C42G C46G] here?
Its self-cleavage is 0.17.

With GGCACAGCUCAAGACAGCGUGGCAAAGUGGCUGUGACUAAACUGCC [G5C C13G G36A G40A] as the variant, how does the self-cleavage read?
Its self-cleavage is 0.07.

Which self-cleavage does the source give for GGCACAGUUCAACACAGCGUUGCAAAGUGGCUGUUGCUAGACUGCC [G5C C8U G21U G35U] here?
Its self-cleavage is 0.11.

With GGCACAGCUCAACACAGGGUAGUAAAGUGGCUGUGGCUAGACAGCC [G5C C18G G21A C23U U43A] as the variant, how does the self-cleavage read?
Its self-cleavage is 0.02.

Which self-cleavage does the source give for GGCACAGCUGAACACAGCGUGGCAAAGUGGCUGUGGCUAGACUCCC [G5C C10G G44C] here?
The self-cleavage was 0.02.

Which self-cleavage does the source give for GGCACAGCUCAACAGAGCGUGGCAAAGUGGCUGUGGCCAGACUGCC [G5C C15G U38C] here?
Its self-cleavage is 0.02.

For GGCACAGCUCAACACAGGGUGGCAAAGUGGCUGUGGCUAGACCGCC [G5C C18G U43C], which self-cleavage is on record?
The self-cleavage was 0.01.

Which self-cleavage does the source give for GGCACAGCUUAACACAGCGUGGCAAAGUAGCUGUGGCUAGUAUGCC [G5C C10U G29A A41U C42A] here?
Its self-cleavage is 0.03.

Which self-cleavage does the source give for GGCACAGCUCAACACAGCGUGGGAAGGUGGCUGUGGCUAGACUGCC [G5C C23G A26G] here?
The self-cleavage was 0.02.

For GGCACAGCUCAAUACAGCGUGGCAAAGUGGCUGUGUCUAGACUGCC [G5C C13U G36U], which self-cleavage is on record?
Its self-cleavage is 0.04.

Which self-cleavage does the source give for GGCACAGCUCAACACAGUGUGGCAAAGGGGCUGUAGCUAGACUGCC [G5C C18U U28G G35A] here?
The self-cleavage was 0.04.

With GGCACAGCUCAACAUUGAGUGGCAAAGUUGCUGUGGCUAGCCUGCC [G5C C15U A16U C18A G29U A41C] as the variant, how does the self-cleavage read?
The self-cleavage was 0.01.

With GGCACAGCUCAACAUAGCGUGGCAAAGUGGCUGUGGCUAGACUGCU [G5C C15U C46U] as the variant, how does the self-cleavage read?
The self-cleavage was 0.07.

Which self-cleavage does the source give for GGCACAGCUCAACACAGCGUGGCAAAGUGGCUGUGGUUAGACUGCG [G5C C37U C46G] here?
The self-cleavage was 0.02.

With GGCACAGCUUGACACAGCGCGGCAAAGUGGCUGUGGCUAGUCAGGC [G5C C10U A11G U20C A41U U43A C45G] as the variant, how does the self-cleavage read?
The self-cleavage was 0.

Which self-cleavage does the source give for GGCACAGCUCAACACAGCGUGGCAAAGUGGCUGUGGAGAGACUGCC [G5C C37A U38G] here?
The self-cleavage was 0.04.

With GGCACAGCUCAACACAGCGUGGGACAGUGGCUGUGGUUAGAUCACC [G5C C23G A25C C37U C42U U43C G44A] as the variant, how does the self-cleavage read?
The self-cleavage was 0.01.

Which self-cleavage does the source give for GGCACAGCUCAACACAGUGUGGCAAAGUGGCUGUGGUUAGACUGCC [G5C C18U C37U] here?
Its self-cleavage is 0.04.

For GGCACAGCUCAAAACAGCGUGGCAAAGUGGCUGUGGCUAGAUUGCC [G5C C13A C42U], which self-cleavage is on record?
The self-cleavage was 0.04.

Which self-cleavage does the source give for GGCACAGCUCAAUACAGCGUGGCAAAGUGACUGUGGCUAGACUGCC [G5C C13U G30A] here?
Its self-cleavage is 0.07.

For GGCACAGCUCAACACAGCGUGGAAAAGUGGCUGUGGCUAGACAGCC [G5C C23A U43A], which self-cleavage is on record?
The self-cleavage was 0.21.

With GGCACAGUUAAACACAGCGUGGCAAAGUGGCUGUGGCUAGACUGCC [G5C C8U C10A] as the variant, how does the self-cleavage read?
Its self-cleavage is 0.04.

With GGCACAGCUAAACACAGCGUUGCCAAGUGGCUGUGGCUAGACUGCC [G5C C10A G21U A24C] as the variant, how does the self-cleavage read?
Its self-cleavage is 0.02.

Which self-cleavage does the source give for GGCACAGCUCAACACAGCGUGGAAAAGUGGCUGUGGCUAUACUGCC [G5C C23A G40U] here?
The self-cleavage was 0.46.

Which self-cleavage does the source give for GGCACAGCUCAACAAAGCGUGGCAAACUAGCUGUGGCUAGACUGCA [G5C C15A G27C G29A C46A] here?
The self-cleavage was 0.03.

With GGCACAGCUCAACACAGAGUGGCAAAGUGGCUGUGUCUAGACUGCC [G5C C18A G36U] as the variant, how does the self-cleavage read?
The self-cleavage was 0.03.

For GGCACAGCUCAAAACAGCGUGGCAAAGUGGCUGUUGCUAGACUGCC [G5C C13A G35U], which self-cleavage is on record?
Its self-cleavage is 0.1.

For GGCACAGCUCAACACAGCGUGGCAAAGUGGAUGAGGCUAGACCGCC [G5C C31A U34A U43C], which self-cleavage is on record?
The self-cleavage was 0.

Which self-cleavage does the source give for GGCACAGCUGAACACAGCGUGGCAAAGUGGCUGUGGCUAUACUGCC [G5C C10G G40U] here?
The self-cleavage was 0.02.

For GGCACAGCUCAACACAGAGUGGCAAAGUGGCUGUGGCUAGACUGCG [G5C C18A C46G], which self-cleavage is on record?
The self-cleavage was 0.03.

Which self-cleavage does the source give for GGCACAGCUGAACACAGCGUGGUAAAGUGGCUGUGGCUAGACUGCC [G5C C10G C23U] here?
Its self-cleavage is 0.02.

Which self-cleavage does the source give for GGCACAGCUCAACAGAGCGUGGCAAAGUGGCUGUGGCUAUACUGCC [G5C C15G G40U] here?
The self-cleavage was 0.02.

Source: the RNAGym collection of RNA variant scans (doi:10.7554/elife.90254)
